Test results as given in the RNAGym collection of RNA variant scans (doi:10.7554/elife.90254).
Read counts are not given, so values of variants with three or more changes are uncertain.

B1: OR4K15 (parent)
chain: GUUAACGGUCAUAGGCCAUGGAAACUAGGAGCACCAUUUCGCUGCCAGUGAAGAAAUGAACAAAGAAAAUCUGGGCCAGGCAGGCAUCAAAAGAAAUAGUCUUGCGCUCAACCAGAAAGUCUGUAAUCAUUUUAAGGGUA

Variants of: B1
Experiment: self-cleavage, relative activity (ratio to wild type); higher = more cleavage; in vitro, sequencing; the parent is a self-cleaving ribozyme
With A67G A78G A89G the self-cleavage was 0.17.
Work on A52U U102C A140G yielded a self-cleavage of 1.76.
Variant A13G A78G A82C G83A has a self-cleavage of 0.4.
Work on U19A U49A A54G G84A yielded a self-cleavage of 1.79.
In the case of A23G A89U A94U U100C U108A A129U, the self-cleavage is reported as 0.03.
A33C U70C A126G showed a self-cleavage of 0.62.
Variant U9C A13U G58U A91G has a self-cleavage of 1.
U2C A86G C101A showed a self-cleavage of 0.17.
Work on A66G A96G A126G yielded a self-cleavage of 0.52.
Work on A64U A82G A118C A126G U130C yielded a self-cleavage of 0.06.
In the case of U38C A90U A126C U130C, the self-cleavage is reported as 0.51.
Variant A5U U19C A23U A64G U72A A116G has a self-cleavage of 0.08.
Work on A11U A24G U37C A63G G136A yielded a self-cleavage of 2.42.
A36U A47G A52G A92C A94G U120C U122C gave a self-cleavage of 0.42.
A54U U70C A96G A98G gave a self-cleavage of 0.12.
A30U A62U A118G gave a self-cleavage of 0.85.
Variant A55G A59G U97C A116G U130C has a self-cleavage of 0.27.
C32U U38C A59G A66G A78G gave a self-cleavage of 0.2.
Work on G28U U39G C113U yielded a self-cleavage of 0.03.
A56G A59G A96G A114U gave a self-cleavage of 0.06.
In the case of A33G A62G C112U A116G, the self-cleavage is reported as 0.01.
U38C A78C U103C gave a self-cleavage of 0.25.
In the case of U2C A56G U102C, the self-cleavage is reported as 1.94.
A4G A51G A96G U108A A129C showed a self-cleavage of 0.1.
In the case of A24G A59U A117U, the self-cleavage is reported as 0.77.
In the case of A22G A56G A140G, the self-cleavage is reported as 1.14.
In the case of U2C A24G A89G, the self-cleavage is reported as 1.49.
With A22G U49C C105U A110G the self-cleavage was 0.08.
Work on U39A A98C G106A yielded a self-cleavage of 0.01.
A24G A47G A92G U132C showed a self-cleavage of 0.32.
U19C A82G A96G gave a self-cleavage of 0.48.
For A4G U38C U87C A94U U100A U103G, the self-cleavage was 0.03.
In the case of A5G A86G A95G, the self-cleavage is reported as 1.42.
Variant A23G U57C A78U has a self-cleavage of 0.23.
Variant A52G A68G U72C A91G A116G U130C has a self-cleavage of 0.08.
For A22G A30G A82G, the self-cleavage was 1.14.
In the case of A22C G48U U49C, the self-cleavage is reported as 0.92.
U43C A60G A95G U108C A114G showed a self-cleavage of 0.02.
With A18U A24G A56G the self-cleavage was 0.25.
Variant A94G U100A U122A has a self-cleavage of 0.45.
Work on U87C G106U U132C yielded a self-cleavage of 0.02.
With A22G A30G A89G the self-cleavage was 1.12.
With U9C A51G A134G the self-cleavage was 0.45.
Variant A30G A64G A116G A126G has a self-cleavage of 0.38.
A22G C34U A63G A67G U72A gave a self-cleavage of 0.2.
Variant A5G U43A U57C U70C U87C A117G has a self-cleavage of 0.73.
Variant A55G A91G A117G has a self-cleavage of 1.02.
For A23G A90G U120C, the self-cleavage was 0.42.
U100C A110G A126G showed a self-cleavage of 0.11.
With A5G A24G A55G U70C U132C the self-cleavage was 0.7.
For U3C A24G A60U A64G A118G, the self-cleavage was 0.59.
U9C A23G U38A A111G gave a self-cleavage of 0.03.
With G53A C109U A111U the self-cleavage was 0.07.
In the case of C76U U100C U120C A126U U127C, the self-cleavage is reported as 0.03.
C61U U122C U131C gave a self-cleavage of 1.78.
With G1U A59U A63G A82U A90G A95G A117G A125G the self-cleavage was 0.02.
For A67G U87C A90G, the self-cleavage was 0.32.
A30G A36G U39C A62G A135U showed a self-cleavage of 1.42.
A66U A96G A110G gave a self-cleavage of 0.08.
Variant U9C A68U A129G U132C A134G U139C has a self-cleavage of 0.
A54G A69G A114U U122C U139A gave a self-cleavage of 0.03.
A54C A90G A111G gave a self-cleavage of 0.02.
In the case of U26A U37C A92G, the self-cleavage is reported as 1.63.
In the case of A64G G83A A95G U132A, the self-cleavage is reported as 2.38.
Variant A52G A114G U130C has a self-cleavage of 0.16.
In the case of C17A A22G U38C U124C, the self-cleavage is reported as 1.18.
U43A A118G U122C showed a self-cleavage of 0.96.
Variant A22G A51G A52G U132C has a self-cleavage of 0.94.
With A78G A114U U120C the self-cleavage was 0.02.
For U9A U57C U87C U131C, the self-cleavage was 0.24.
A33G U38C A54U C109A gave a self-cleavage of 0.34.
With U9C U38C A51G U87C U102C U131C the self-cleavage was 2.51.
In the case of U38C G41A A55G, the self-cleavage is reported as 1.41.
With U12C A22U U132C the self-cleavage was 0.64.
For A11G A30G U39A, the self-cleavage was 0.93.
A59G U108G U131C gave a self-cleavage of 0.02.
Variant A22G U39A A55G U57C A95G A126U has a self-cleavage of 0.56.
A30G C45U A64G showed a self-cleavage of 1.41.
In the case of A11G A23G A33C U97C, the self-cleavage is reported as 0.29.
Variant U12A A13G A126C has a self-cleavage of 0.68.
Variant U3C U19C A86G U122G has a self-cleavage of 2.29.
A5G A59G A64G A86G gave a self-cleavage of 0.5.
With U38C A51G U132C the self-cleavage was 1.
